# In all, about 110,000 compounds went through this assay and about 230 (0.21%) showed an effect of 50% or more. The list shows a part of the results.
# Molecular target: DPAP1 (Plasmodium falciparum, UniProt Q8IIJ9)
# Assay: primary screen, percent inhibition; read by cleavage of a fluorogenic dipeptide substrate; higher = more effect of the substance
# Parameters: species or system P. falciparum D10 trophozoite lysates; single well
# 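Also: 30 min substrate incubation versus DMSO and 10 µM JCP410 controls.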
# Sequence of DPAP1 (Q8IIJ9 whole entry, looked up): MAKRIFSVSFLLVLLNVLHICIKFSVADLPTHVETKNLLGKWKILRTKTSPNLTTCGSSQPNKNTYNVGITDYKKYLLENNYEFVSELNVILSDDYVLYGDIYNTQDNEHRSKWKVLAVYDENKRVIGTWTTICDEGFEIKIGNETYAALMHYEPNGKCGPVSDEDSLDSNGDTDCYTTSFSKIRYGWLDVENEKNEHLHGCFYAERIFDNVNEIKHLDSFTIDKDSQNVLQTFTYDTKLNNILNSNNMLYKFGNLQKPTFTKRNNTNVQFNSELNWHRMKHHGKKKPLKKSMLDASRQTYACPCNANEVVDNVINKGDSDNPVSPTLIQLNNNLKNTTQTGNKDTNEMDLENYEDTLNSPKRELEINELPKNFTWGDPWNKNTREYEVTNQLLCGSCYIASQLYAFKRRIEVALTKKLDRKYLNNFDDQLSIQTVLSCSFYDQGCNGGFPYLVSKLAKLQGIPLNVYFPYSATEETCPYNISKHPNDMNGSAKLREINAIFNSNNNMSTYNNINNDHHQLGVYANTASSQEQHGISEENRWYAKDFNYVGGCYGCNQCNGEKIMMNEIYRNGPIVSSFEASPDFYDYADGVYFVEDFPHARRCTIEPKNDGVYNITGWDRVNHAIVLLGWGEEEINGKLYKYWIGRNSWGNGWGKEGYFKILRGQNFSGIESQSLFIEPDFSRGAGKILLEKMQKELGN
row,SMILES,% Inhibition @ 10 uM
1,CCOC(=O)N1CCN(S(=O)(=O)c2cc(Br)ccc2OC)CC1,-0.251%
2,O=C(Nc1ccc(S(=O)(=O)Nc2nccs2)cc1)c1ccc2c(c1)OCO2,7.82%
3,O=C(CSc1nc2ccccc2nc1N1CCCCC1)NCc1ccc2c(c1)OCO2,-0.183%
4,COc1cc(C(c2c(C)n(C)n(-c3ccccc3)c2=O)c2c(C)n(C)n(-c3ccccc3)c2=O)cc(OC)c1OC,-4.58%
5,O=S(=O)(NCc1ccc2c(c1)OCO2)c1c[nH]cn1,1.23%
6,CC(C)C(NC(=O)CN(c1ccccc1F)S(=O)(=O)c1ccccc1)C(C)C,-2.83%
7,COc1ccc(N(CC(=O)Nc2ccccc2C)S(=O)(=O)c2ccccc2)cc1OC,-15.2%
8,O=C(Nc1cccc2ccccc12)OC[C@@H]1CCCN2CCCC[C@H]12,-1.32%
9,Cc1cc(C)c2ccc(Cl)cc2n1,2.62%
10,COc1ccc(CN2CCN(c3ccc(F)cc3)CC2)cc1C,3%
11,CCOC(=O)c1ccccc1NC(=O)c1ccc(Cl)c(Cl)c1,-0.116%
12,COc1ccc(C2C(C#N)=C(N)OC3=C2C(=O)CCC3)c(C)c1C (stereo not drawn),-0.261%
13,Cc1cccc(OCC(=O)Nc2ccc(S(=O)(=O)N3CCc4ccccc43)cc2)c1,3.17%
14,CC(=O)c1ccc(N2CCN(Cc3cccc(Cl)c3Cl)CC2)cc1,0.273%
15,N#CCNC(=O)C1CCCCN1c1cccc(-c2cccc(N3CCC(N4CCOCC4)CC3)c2)c1 (stereo not drawn),-4.72%
16,CCc1nn(CC(=O)N2CCC(Cc3ccccc3)CC2)c(=O)c2cc3sccc3n12,3.4%
17,CC(C(NC(=O)OCc1ccccc1)C(=O)NCC#N)C(F)(F)F (stereo not drawn),-8.82%
18,Cn1cc(NC(=O)NCc2cccnc2)c2ccccc2c1=O,2.25%
19,O=C1C=C(NCCN2CCOCC2)CC(c2ccccc2)C1 (stereo not drawn),1.26%
20,CCN(CC)C(=O)C1CCCN(Cc2ccc3ccccc3c2)C1 (stereo not drawn),-0.0404%
21,CN(C)CCNC(=O)c1cc2ccccc2[nH]1,-9.34%
22,Cc1[nH]c2ccccc2c1C(=O)C(=O)N1CC2CC(C1)c1cccc(=O)n1C2 (stereo not drawn),-3.44%
23,Cc1nc2nc(-c3ccc(Cl)cc3Cl)nn2c(C)c1CCC(=O)N1CCCC1,-0.72%
24,CC(Oc1ccccc1)C(=O)NC1CCCCC1 (stereo not drawn),5.66%
25,CCOc1cc(C(=O)Nc2nn3c(C)nnc3s2)cc(OCC)c1OCC,-5.66%

row,SMILES,% Inhibition @ 10 uM
1,O=C(NC(Nc1ccc(Br)cc1)C(=O)c1ccccc1)c1ccccc1 (stereo not drawn),4.89%
2,N=C1/C(=C\c2ccc(OCc3ccc4c(c3)OCO4)cc2)C(=O)N=C2SC(N3CCCC3)=NN12,-3.44%
3,Cc1ccc(-n2c(SCCC(=O)O)nc3c(cnn3-c3ccccc3)c2=O)cc1,1.43%
4,Cc1c(C(=O)O)[nH]c2c1C(=O)CC(c1ccccc1Cl)C2 (stereo not drawn),-3.21%
5,CCOC(=O)Nc1cc(C2CC2)nc2ccc(Br)cc12,-5.11%
6,O=C(NCc1ccccn1)C1CCN(Cc2cnn(-c3ccccc3)c2-n2cccc2)CC1,5.42%
7,CCn1cc(/C=C(\NC(=O)c2ccco2)C(=O)NCCCn2ccnc2)c2ccccc21,-1.74%
8,Cc1ccc(Cl)cc1-n1ncc2c(NCC3CCCO3)ncnc21 (stereo not drawn),6.29%
9,CCOc1cc2c(cc1OCC)C1C(C(=O)NCCN3CCOCC3)c3ccccc3C(=O)N1CC2 (stereo not drawn),-4.03%
10,CCOc1ccccc1CN1CCN(c2ccc([N+](=O)[O-])cc2)CC1,-3.72%
11,N#CCCN(Cc1ccccc1)C(CO)CC(=O)NCc1ccccc1 (stereo not drawn),-0.415%
12,O=[N+]([O-])c1ccc(N2CCCC2)c(OCCO)c1,-0.546%
13,CN(C)CC(=O)Nc1c2c(nc3c1CCC3)CCCC2,-2.8%
14,COc1cccc(C(=O)Nc2c(-c3ccc(F)cc3)nc3ccccn23)c1OC,-4.23%
15,Brc1ccc(CN2CCCCCC2)o1,-0.261%
16,O=c1c(NCCCc2ccccc2)c(-c2ccccc2)c1=O,-1.69%
17,C=CCNC(=O)Nc1cnc2c(C)cccc2c1O,5.2%
18,CC1CCc2c(nc3ccccc3c2C(=O)O)C1 (stereo not drawn),-2.98%
19,COc1cc(CN2CCC(O)CC2)cc2c1OCO2,5.03%
20,CN1CC[C@@]2(O)CCCC[C@@H]2[C@H]1c1ccc(Cl)c(Cl)c1,4.26%
21,Fc1ccccc1N1CCN(CC2CCCCC2)CC1,-0.446%
22,O=C(C1=C(O)C(=O)N(CCN2CCNCC2)C1c1ccccc1)c1ccccc1 (stereo not drawn),2.69%
23,N#CCNC(=O)[C@H](Cc1cc(Cl)c(O)c(Cl)c1)NC(=O)c1cc(F)cc(F)c1,-4.72%
24,Cc1ccc(OCC(=O)Nc2cccc3cccnc23)cc1,-1.61%
25,COc1ccc(OCC(NS(=O)(=O)c2ccc(-n3cnnn3)cc2)C(C)C)cc1 (stereo not drawn),3.88%

row,SMILES,% Inhibition @ 10 uM
1,O=S(=O)(Nc1ccc2c(c1)OCCO2)c1ccccc1,4.31%
2,COC(=O)c1c(NC(=O)COc2ccccc2C(C)(C)C)sc2c1CCCC2,-2.6%
3,C#CC(C)(CC)NC(=O)Cn1nnc(-c2ccc(OC)cc2)n1 (stereo not drawn),-2.19%
4,NC(=O)C1CCCN(Cc2ccc(Cl)c(Cl)c2)C1 (stereo not drawn),-4.75%
5,NS(=O)(=O)c1ccc(CCNC(=O)C2CCN(S(=O)(=O)c3cccs3)CC2)cc1,4.5%
6,COc1ccc(C(C)(C)C)cc1NC(=O)c1ccc(C)s1,7.55%
7,CCOC(=O)N1CCN(C(=O)COCc2cc(-c3cccs3)on2)CC1,-1.04%
8,Cc1ccc(C2CC(C(F)(F)F)n3nc(C(=O)NCc4cn(C)nc4C)cc3N2)cc1 (stereo not drawn),3.94%
9,COc1cccc(OC)c1C(=O)Nc1ccc(C)c(C)c1,1.83%
10,COc1ccc(S(=O)(=O)/N=C2\C=C(Br)C(=O)c3ccccc32)cc1,5.12%
11,Sc1nc2ccccc2c2nc(COc3ccc(Cl)cc3)nn12,1.41%
12,CCOC(=O)c1oc2cccc(O)c2c1CN(Cc1ccccc1)C(C)=O,5%
13,CCOC(=O)C1=C(O)/C(=C\c2ccc(OCC(=O)NC(C)c3ccccc3)cc2)N=C1C (stereo not drawn),0.131%
14,COCCNC(=O)Cn1cc2c(n1)CCCCC2,0.137%
15,COCCNC(=O)c1c(NC(=O)c2ccc(Cl)cc2Cl)sc2c1CCCC2,2.49%
16,COc1ccc(COC(=O)C2=C(C)NC(=O)NC2c2ccc3c(c2)OCO3)cc1 (stereo not drawn),-6.46%
17,O=C(COc1ccccc1)Nc1cccnc1,-4.86%
18,CC(=O)Nc1ccc(S(=O)(=O)Nc2ccccc2C(=O)Nc2ccccc2)cc1,-1.59%
19,O=C(/C=C/c1ccnc2ccccc12)c1cccs1,-0.339%
20,COc1cc(C2C(C#N)=C(N)OC3=C2C(=O)CC(C)(C)C3)ccc1O (stereo not drawn),1.13%
21,Cc1ccc(CNC(=O)C2CCN(S(=O)(=O)c3ccc(Br)s3)CC2)cc1,-7.27%
22,CCOc1ccc(S(=O)(=O)N(CC(=O)Nc2cccc(Br)c2)c2ccccc2)cc1,-2.38%
23,COc1ccc2nc(NS(=O)(=O)c3ccccc3)sc2c1,17.6%
24,CCOC(=O)N1CCC(NC(=O)C2CCCN(C(=O)c3cc4sccc4n3C)C2)CC1 (stereo not drawn),-8.2%
25,COC(=O)c1cc(-c2ccccc2)sc1NC(=O)CSc1nnc2ccccn12,-3.41%

row,SMILES,% Inhibition @ 10 uM
1,O=C(COc1ccccc1)N(Cc1cccs1)C1CCS(=O)(=O)C1 (stereo not drawn),2.1%
2,N#Cc1cc(-c2ccccc2)nn1-c1ccccc1,-2.18%
3,O=C(NC1CC1)c1cc(-c2ccccc2)[nH]n1,-3.1%
4,Cc1ccccc1N1C(=O)C2C3CCC(O3)C2C1=O (stereo not drawn),1.72%
5,Cn1c(=O)c2c(nc3n(Cc4ccccc4)c(-c4cccs4)cn23)n(C)c1=O,-2.77%
6,O=C(O)c1cccc(C(=O)O)c1N(c1ccccc1)c1ccccc1,4.74%
7,Nc1c(C(=O)Nc2nccs2)sc2nc3c(c(-c4ccccc4Cl)c12)CCCC3,-0.458%
8,CC(C)N1C(=O)/C(=C\c2ccncc2)S/C1=N/c1ccccc1,-2.09%
9,COc1cc(S(=O)(=O)NCC2COCCO2)ccc1-n1cnnn1 (stereo not drawn),-2.84%
10,COc1ccc(NS(=O)(=O)c2ccc(NC(=S)NC(=O)/C=C/c3ccco3)cc2)nn1,-8.3%
11,CC(C)CCNC(=O)CCc1nc2cccnc2n1-c1ccccc1,-8.68%
12,Cc1cc(C)c(C)c(OCC(=O)NC2CCCC2)c1,2.43%
13,C/N=c1\c(NS(=O)(=O)c2ccc3c(c2)CCCC3)c(O)oc2ccccc12,-2.78%
14,Cc1nn(-c2ccccc2)c(-n2cccc2)c1C(=O)NCc1ccc2c(c1)OCO2,6.27%
15,Cc1nc2cccnc2n1-c1ccc(CC(=O)N2CCN(c3ccccn3)CC2)cc1,-0.943%
16,CC(C)(C)N(CCNS(=O)(=O)c1ccc(-c2cc(C(F)(F)F)no2)s1)Cc1ccco1,-3.79%
17,CC(C)(C)c1ccc(C(=O)NC2CCS(=O)(=O)C2)cc1 (stereo not drawn),0.214%
18,COc1ccc(CNC(=O)CN(C)S(=O)(=O)c2c(C)cc(C)cc2C)cc1,0.83%
19,Cc1ccccc1Cn1c(SCc2ccc(C(=O)NCc3ccccn3)cc2)nc2ccncc21,-0.23%
20,Fc1ccc2c(c1)c1nnc(S)nc1n2Cc1ccccc1,3.73%
21,O=C(NCCC1=CCCCC1)c1cccc2c1C(=O)N(C1CCCCC1)C2,2.39%
22,COc1ccccc1NC(=O)C1=C(C)N=C2CCCC(O)=C2C1c1cccc(Cl)c1Cl (stereo not drawn),-1.21%
23,Cn1c(=O)c2c(nc(S)n2Cc2cc3c(cc2Cl)OCO3)n(C)c1=O,3.79%
24,O=C(O)C1C2C=CC3(CN(Cc4ccccc4)C(=O)C13)O2 (stereo not drawn),-7.61%

# Reference: publication PMC6919601, “Identification of Plasmodium dipeptidyl aminopeptidase allosteric inhibitors by high throughput screening” (PLoS ONE, 2019)
